Experimental data: PubChem BioAssay AID1347073 (National Center for Advancing Translational Sciences (NCATS), 2019)
Hit rate of the full screen: of about 45,000 compounds, about 200 (0.44%) were called active. Another 7% or so got no clear call; they are omitted. Calls follow the shape of the dose curve; as a rule, active = well fitted activation curve with a large enough effect; inconclusive = small, poorly fitted or top-dose-only effect; inactive = no such curve, though single readings can be large or run the other way. The list shows a part of the results.

Assay: qHTS of TDP-43 Inhibitors: NCGC Sytravon Library Screen; also: 0% is about no effect; nearly all actives have a fitted effect of over 55% in size
Settings: yeast TDP-43 toxicity rescue, BacTiter-Glo growth, 24 h; series mostly up to 46.1 µM; growth rescue (activation): at the top concentration
How it was run: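 TDP-43-expressing yeast, pregrown in raffinose, seeded at OD600 0.02 in galactose medium with compound for 24 hr at 30 deg C. Growth read by BacTiter-Glo luminescence, so rescue of toxicity appears as activation.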

| SMILES | growth rescue (activation) |
| --- | --- |
| O=C(CCCN1C(=O)/C(=C/c2ccccc2OC(F)F)SC1=S)Nc1cccnc1 | inactive: 9.14% |
| CCN(c1cccc(C)c1)S(=O)(=O)c1csc(C(N)=O)c1 | inactive: 0.49% |
| Cc1ccc(NS(=O)(=O)c2ccc(Cl)c(NC(=S)NC(=O)C3CCCCC3)c2)cc1Cl | inactive: 12.9% |
| CC(OC(=O)CCN1C(=O)c2cccc([N+](=O)[O-])c2C1=O)C(=O)Nc1cc(Cl)cc(Cl)c1 (stereo not given) | inactive: -10.3% |
| CCCS(=O)(=O)N1CCC(C(=O)NCCCOC)CC1 | inactive: -3.35% |
| COCCNC(=O)C1(C)CCN(C(=O)c2ccc(F)c(C)c2)C1 (stereo not given) | inactive: -8.71% |
| CC1(C)Cc2nc3oc4c(=O)n(CC(=O)Nc5ccccc5)cnc4c3cc2CO1 | inactive: 11.8% |
| CCCCn1c(O)c(N=NC(=O)c2ccccc2NS(=O)(=O)c2cccs2)c2ccccc21 | inactive: -20.8% |
| CCOc1cc(/C=C\c2nc(O)c([N+](=O)[O-])c(=O)[nH]2)ccc1OC(C)C | inactive: 14.1% |
| O=C(O)/C(=C\c1ccccc1OC(F)F)Sc1nnc(-c2ccc(F)cc2)o1 | inactive: -50.3% |
| CC(C)c1ccc(/C=C2\NC(=O)NC2=O)cc1 | inactive: 7.87% |
| COc1ccc(/C=C/C(=O)c2ccc3c4c(cccc24)CC3)cc1OC | inactive: 3.15% |
| Cc1cc(C(=O)NC2CCC(O)CC2)c(C)o1 (stereo not given) | inactive: 24.6% |
| Cc1ccc(NCc2nnc(SCC(=O)O)n2Cc2ccccc2)cc1Cl | inactive: -1.35% |
| Cc1ccc(C)c(OCC(=O)Nc2ccc(S(=O)(=O)Nc3ccccn3)cc2)c1 | inactive: -3.35% |
| CCc1cccc(CC)c1NC(=O)c1ccc(-n2cncn2)nc1 | inactive: -10.3% |
| O=C(O)c1cnc2[nH]c3ccccc3n2c1=O | inactive: 26.8% |
| CCOC(=O)c1c(NC(=O)CCNCc2ccco2)sc2c1CCC2 | inactive: -7.14% |
| COc1ccc(N2CCN(S(=O)(=O)c3cnc[nH]3)CC2)cc1 | inactive: -17.9% |
| COc1cccc(C2C3=C(CC(C)(C)CC3=O)Nc3n[nH]c(C)c32)c1 (stereo not given) | inactive: 18.3% |
| CCC(C)(C)C1CCC(=NNS(=O)(=O)c2ccc(C)c([N+](=O)[O-])c2)CC1 (stereo not given) | inactive: 33.8% |
| Cc1ccc(C2(c3ccc(C)cc3)CC2C(=O)NC(C)C)cc1 (stereo not given) | inactive: 0.312% |
| O=C1CN(C(=O)CSc2nc3ccccc3c(=O)n2Cc2ccc(F)cc2)c2ccccc2N1 | inactive: 7.92% |
| COCCNC(=O)C1(C)CCCN(C(=O)c2ccc(C(=O)OC)cc2)C1 (stereo not given) | inactive: 5.86% |
| Cc1[nH]ncc1-c1nc2ccccc2[nH]1 | inactive: 5.98% |
| COCc1c(C(=O)N2CCc3ccccc32)oc2ccccc12 | inactive: 13% |
| COc1ccc(N(Cc2ccccc2)N=O)cc1 | inactive: 24.6% |
| O=C1NC2(CCCCCC2)C(=O)N1Cc1ccc(F)cc1Cl | inactive: 14.7% |

| SMILES | growth rescue (activation) |
| --- | --- |
| CCN(C(=O)CSc1nnc2c3ccccc3n(CC)c2n1)C1CCS(=O)(=O)C1 (stereo not given) | inactive: 11% |
| O=C(Cn1cccc1C(=O)c1ccccc1)NCc1ccccc1Cl | inactive: 14.8% |
| CCOc1cc(/C=C2/SC(=S)N(CC3CCCO3)C2=O)ccc1O (stereo not given) | inactive: -18.3% |
| CC(C)(C)C(=O)/C(C#N)=C/c1ccc(O)cc1 | inactive: 6.39% |
| Cc1c(Cl)cccc1NC(=O)Cn1nnc(-c2nc(-c3ccccc3)no2)c1N | inactive: 20.7% |
| Cc1cc(C)nc(Nc2nc(C(N)CCc3ccccc3)cs2)n1 (stereo not given) | inactive: 14.4% |
| CN(C)CCCNC(=O)c1ccc(Oc2ccccc2)cc1 | inactive: -13.2% |
| Cc1cc(=O)[nH]c(SCCc2ccccc2)n1 | inactive: -0.213% |
| N#Cc1ccc(COC(=O)c2cnc(Cl)c(Cl)c2)cc1 | inactive: 18.9% |
| O=C(NC(=S)Nc1ccccc1CO)C1CCCCC1 | inactive: 10.1% |
| COc1ccc(C(=O)NCCCSc2ccccc2)cc1F | inactive: 19.4% |
| Cc1coc2cc3oc(=O)c(CCC(=O)O)c(C)c3cc12 | inactive: -24% |
| Cc1ccccc1Nc1c(-c2ccc(N3CCOCC3)cc2)nc2cnccn12 | inactive: 28.1% |
| COc1ccccc1NC(=O)CCSc1nnnn1C | inactive: 19.8% |
| Cc1ccc(S(=O)(=O)Nc2c(C)n(C)n(-c3ccccc3)c2=O)cc1C(=O)OCC(=O)N1CCCC(C)C1 (stereo not given) | inactive: 21.7% |
| O=C(CCc1ccccc1)OCCOC(=O)CCc1ccccc1 | inactive: 1.77% |
| CCOC(=O)N1CCC(=NNC(N)=O)CC1 | inactive: -11.7% |
| C/C(=N\Nc1nc2ccccc2s1)c1cccs1 | inactive: -3.49% |
| CCCN(CC1CCCO1)C(=O)c1cc(COc2ccc(F)cc2F)on1 (stereo not given) | inactive: 20.3% |
| CCN(CC)c1nc(C#N)nc(N(CC)CC)n1 | inactive: 27.6% |
| CCC1(c2ccc(Cl)cc2)NC(=O)N(CC(=O)N2CCN(C(=O)c3ccco3)CC2)C1=O (stereo not given) | inactive: 19.1% |
| CCn1c(SCC(O)c2ccccc2)nnc1-c1ccccc1 (stereo not given) | inactive: -4.03% |
| NC(=O)C1CCN(c2oc(-c3cccs3)nc2S(=O)(=O)c2ccc(Br)cc2)CC1 | inactive: 3.73% |
| Cc1ccc(S(=O)(=O)/N=C2/NC(=O)/C(=C/c3ccccc3)S2)cc1 | inactive: -1.98% |
| CCNc1nc(SCC(=O)Nc2ccc(Cl)c(Cl)c2)nc(N2CCOCC2)n1 | inactive: 23.1% |
| C/C(=N/NC(=O)CSc1nc2ccccc2n1C)c1ccncc1 | inactive: -0.636% |
| Cc1nc2ccc(NC(=O)Cc3ccc(Br)cc3)cc2s1 | inactive: -2.41% |
